# Laboratory results as given in PubChem BioAssay AID602310 (National Center for Advancing Translational Sciences (NCATS), 2012).
# About 310 (0.076%) of roughly 410,000 compounds were called active. This list was built around the results that the source calls inconclusive (neither active nor inactive); the mix of calls is not that of the screen. Calls come from the whole dose curve; as a rule, active = well fitted curve in the direction sought with a large enough effect; inconclusive = small, poorly fitted or top-dose-only effect; inactive = flat fitted curve, though single readings scatter. Potencies beside an inconclusive call are fits to weak or partial responses and may not hold up.
# Molecular target: DNA dC->dU-editing enzyme APOBEC-3G (Homo sapiens) (UniProt Q9HC16)
# Experiment: qHTS for Inhibitors of Vif-A3G Interactions: qHTS; note: nearly all actives have a fitted effect of over 60% in size
# Conditions: HeLa A3G-eYFP + Vif (tagged APOBEC3G with the HIV-1 protein that degrades it), YFP fluorescence, overnight; series mostly up to 46.1 µM
# Method in brief: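 HeLa cells stably expressing Vif and C-terminally eYFP-tagged A3G, seeded overnight at 37 deg C, then exposed to compound by pintool overnight at 37 deg C. Rise in yellow fluorescence (Ex 488/Em 500-530, Acumen) marks blocked Vif-driven A3G degradation.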
# Potency is the fitted concentration of half-maximal effect; tags give direction and shape of the fitted curve.
# Chain of UniProt Q9HC16 (Q9HC16 whole entry, looked up): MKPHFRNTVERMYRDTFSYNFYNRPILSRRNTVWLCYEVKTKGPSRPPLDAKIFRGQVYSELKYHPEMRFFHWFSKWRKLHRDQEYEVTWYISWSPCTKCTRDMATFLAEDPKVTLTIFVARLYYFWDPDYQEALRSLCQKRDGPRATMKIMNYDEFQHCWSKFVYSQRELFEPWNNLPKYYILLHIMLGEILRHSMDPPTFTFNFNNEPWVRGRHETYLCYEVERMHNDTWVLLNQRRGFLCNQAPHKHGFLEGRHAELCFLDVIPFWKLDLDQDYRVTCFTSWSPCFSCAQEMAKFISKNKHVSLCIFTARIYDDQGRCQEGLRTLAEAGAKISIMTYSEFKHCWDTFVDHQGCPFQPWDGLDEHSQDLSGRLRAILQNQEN
row,SMILES,Potency
1,COc1ccc(CNc2ccc3c(c2)ncn3C)cc1OC,"inconclusive: 15.8 µM [inhibitor, single point]"
2,COc1cc(C(=O)Oc2c(CN3CCOCC3)cc(Cl)c3cccnc23)cc(OC)c1OC,"inconclusive: 22.4 µM [inhibitor, single point]"
3,CC1(C)CC(N=c2cc(-c3ccccc3)oc3ccc(Cl)cc23)CC(C)(C)N1,inactive
4,NS(=O)(=O)c1ccc(CCNC(=O)c2cc(-c3ccc(Br)cc3)nc3ccccc23)cc1,"inconclusive: 20 µM [inhibitor, single point]"
5,CO/N=C(/CS(=O)(=O)c1ccc(Br)cc1)c1ccc(OC)cc1,"inconclusive: 12.6 µM [inhibitor, single point]"
6,Cc1ccc(/C=N\NC(=O)Cc2noc3ccccc23)cc1,"inconclusive: 7.08 µM [inhibitor, partial curve, poor fit]"
7,CCOc1ccc(-c2nc(N)ncc2Oc2ccc(OC)cc2)c(O)c1,inactive
8,COc1ccc(C(=O)/C=C/c2ccccc2)c(OC)c1,"inconclusive: 11.2 µM [inhibitor, partial curve]"
9,O=C(Nc1nc(-c2ccco2)c(-c2ccco2)s1)C1CCC1,inactive
10,O=C(Nc1nc2ccccc2[nH]1)C1CCC1,"inconclusive: 35.5 µM [inhibitor, single point]"
11,O=C(/C=C/c1ccncc1)c1ccc2c(c1)OCCO2,"inconclusive: 14.1 µM [inhibitor, single point]"
12,CN1CCN(C(c2ccc(C(F)(F)F)cc2)c2ccc3cccnc3c2O)CC1 (stereo not given),inactive
13,Cc1cc(C)c(S(=O)(=O)n2ccc3ccccc32)c(C)c1,inactive
14,COc1ccc(C(=O)c2c3ccc([N+](=O)[O-])cc3[n+]([O-])n2CCCN)cc1,"inconclusive: 11.2 µM [inhibitor, single point]"
15,O=C(CCl)N1N=C(c2cccs2)CC1c1ccco1 (stereo not given),"inconclusive: 22.4 µM [inhibitor, single point]"
16,COc1cc2ncnc(NCc3cccc(F)c3F)c2cc1OC,inactive
17,O=C(NCCOc1ccccc1F)c1cc([N+](=O)[O-])ccc1N1CCOCC1,"inconclusive: 4.47 µM [inhibitor, partial curve]"
18,NNC(=O)/C(=C\c1ccco1)NC(=O)c1ccco1,"inconclusive: 11.2 µM [inhibitor, partial curve, poor fit]"
19,CC(=O)/C(=C\N(C)C)Sc1ccc(Cl)cc1,"inconclusive: 12.6 µM [inhibitor, partial curve, poor fit]"
20,O=C(O)c1cccc(Nc2cc(Cl)c3nonc3c2[N+](=O)[O-])c1,inactive
21,COc1ccc(NC(=O)C2(C)Cc3c(-c4ccc5c(c4)OCO5)ccnc3O2)cn1 (stereo not given),"inconclusive: 1.58 µM [inhibitor, full curve, poor fit]"
22,COc1ccc(OCC2c3cc(OC)c(OC)cc3CCN2C(=O)COc2ccc(Cl)cc2Cl)cc1 (stereo not given),inactive
23,Cc1ccc(C)c(NC(=O)Cn2c(=O)n(Cc3ccc4c(c3)OCO4)c(=O)c3oc4ccccc4c32)c1,inactive

row,SMILES,Potency
1,Cc1ccc(CSc2nc(-c3ccc(C(C)(C)C)cc3)nc3cc(=O)[nH]n23)cc1,active: 10 µM
2,O=C1ON=C(c2ccccc2)/C1=C/c1ccc(-c2ccccc2[N+](=O)[O-])o1,"inconclusive: 11.2 µM [inhibitor, partial curve]"
3,O=C(Nc1ccccc1N1CCCCC1)c1ccc(-c2ccc(Cl)cc2)o1,"inconclusive: 1.58 µM [inhibitor, full curve, poor fit]"
4,COC(=O)C1=C(C)N=c2s/c(=C/c3ccoc3)c(=O)n2C1c1ccccc1 (stereo not given),"inconclusive: 28.2 µM [inhibitor, single point]"
5,Cc1ccc2[nH]c(-c3ccccc3)cc(=O)c2c1,"inconclusive: 0.891 µM [inhibitor, full curve, poor fit]"
6,Cc1c(C(=O)OCC2CCCO2)[nH]c2c1C(=O)CC(c1ccco1)C2 (stereo not given),"inconclusive: 3.16 µM [inhibitor, full curve]"
7,O=C(Nc1cccc(O)c1)c1ccc(NC(=O)c2cccs2)cc1,"inconclusive: 35.5 µM [inhibitor, single point]"
8,C(=C\c1ccnc2ccccc12)/c1ccc2c(c1)OCO2,inactive
9,O=C(N/N=C/c1c[nH]c2ccccc12)c1[nH]c2ccc(Br)cc2c1-c1ccccc1,"inconclusive: 1.26 µM [inhibitor, partial curve, poor fit]"
10,CC1=CC(=O)c2ccccc2C1=O,"inconclusive: 22.4 µM [inhibitor, single point]"
11,COc1ccc(COc2cccnc2N)cc1,inactive
12,Cc1ccc(Cc2c(-c3ccc(Br)cc3)nc3cc(C)ccn23)cc1,inactive
13,COc1cc(C(=O)Nc2ccccc2C(=O)Nc2ccccn2)cc(OC)c1OC,inactive
14,O=C(CCS(=O)(=O)c1ccccc1)Nc1nncs1,"inconclusive: 25.1 µM [inhibitor, single point]"
15,Cc1[nH]c2ccccc2c1/C=C/c1cnc2ccccc2n1,"inconclusive: 20 µM [inhibitor, single point]"
16,Cc1ccccc1OCC(=O)N/N=C/c1ccc(N(C)C)cc1,"inconclusive: 14.1 µM [inhibitor, partial curve, poor fit]"
17,O=C1COc2cc(S(=O)(=O)CCC(=O)N3CCN(c4ccccc4)CC3)c(Cl)cc2N1,inactive
18,CCOc1cc(C(=O)NN=C2CCCC2)cc(OCC)c1OCC,"inconclusive: 8.91 µM [inhibitor, partial curve, poor fit]"
19,O=C(Nc1ccc2c(c1)OCO2)C1Cc2c(-c3ccc4c(c3)OCO4)ccnc2O1 (stereo not given),"inconclusive: 2.51 µM [inhibitor, full curve, poor fit]"
20,CC[n+]1c(/C=C/c2c[nH]c3ccccc23)ccc2cc(C)ccc21,"inconclusive: 2.24 µM [inhibitor, partial curve, poor fit]"
21,CC(NCC(=O)NCCc1ccc(S(N)(=O)=O)cc1)c1ccc(F)cc1 (stereo not given),inactive
22,COc1ccc(S(=O)(=O)Nc2cccc(-c3ccc4nncn4n3)c2)cc1F,"inconclusive: 2.82 µM [inhibitor, full curve]"
